# Measured values from paper PMC4336329 (PLoS ONE, 2015).
# The whole screen tested about 310,000 compounds, of which about 2,200 (0.71%) showed an effect of 50% or more. The effect is printed as a negative number. The list shows a part of the results.
# Molecular target: human ether-à-go-go-related gene (hERG) potassium channel (human, UniProt Q12809)
# Experiment: primary screen, population patch clamp on CHO cells stably expressing hERG
# human ether-à-go-go-related gene (hERG) potassium channel, sequence (Q12809 whole entry, looked up): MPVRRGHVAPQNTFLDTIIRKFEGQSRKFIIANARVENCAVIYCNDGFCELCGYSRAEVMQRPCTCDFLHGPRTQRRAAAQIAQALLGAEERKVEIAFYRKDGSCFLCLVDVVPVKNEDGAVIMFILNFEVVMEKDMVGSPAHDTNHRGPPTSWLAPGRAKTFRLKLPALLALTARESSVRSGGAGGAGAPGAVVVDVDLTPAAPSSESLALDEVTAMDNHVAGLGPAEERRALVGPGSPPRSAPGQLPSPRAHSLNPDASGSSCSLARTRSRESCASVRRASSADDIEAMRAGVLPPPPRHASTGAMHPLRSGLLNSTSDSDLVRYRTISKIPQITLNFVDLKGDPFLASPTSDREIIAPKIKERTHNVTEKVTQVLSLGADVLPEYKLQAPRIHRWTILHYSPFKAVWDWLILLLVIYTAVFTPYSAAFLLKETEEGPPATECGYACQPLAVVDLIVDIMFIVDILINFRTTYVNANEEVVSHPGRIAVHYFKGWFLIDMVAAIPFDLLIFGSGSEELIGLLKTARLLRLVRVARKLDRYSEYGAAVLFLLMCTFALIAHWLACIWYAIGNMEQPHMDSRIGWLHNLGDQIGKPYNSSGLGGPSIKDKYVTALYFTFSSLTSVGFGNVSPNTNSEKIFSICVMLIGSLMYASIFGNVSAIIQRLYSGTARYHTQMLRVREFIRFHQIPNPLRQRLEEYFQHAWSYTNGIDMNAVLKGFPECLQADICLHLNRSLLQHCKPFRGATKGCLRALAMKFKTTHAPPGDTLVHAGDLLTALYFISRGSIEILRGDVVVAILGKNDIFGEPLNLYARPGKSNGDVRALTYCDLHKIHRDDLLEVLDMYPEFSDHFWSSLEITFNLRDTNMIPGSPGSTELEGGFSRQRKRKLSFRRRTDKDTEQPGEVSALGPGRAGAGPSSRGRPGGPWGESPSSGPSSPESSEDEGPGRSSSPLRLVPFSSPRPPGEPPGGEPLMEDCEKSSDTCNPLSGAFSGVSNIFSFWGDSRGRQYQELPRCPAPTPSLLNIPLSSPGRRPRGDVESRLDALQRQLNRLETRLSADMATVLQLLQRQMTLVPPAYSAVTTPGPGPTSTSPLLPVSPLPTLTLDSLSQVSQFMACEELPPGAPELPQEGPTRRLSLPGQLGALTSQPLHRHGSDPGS
row,Compound,"hERG current change (%, negative = inhibition) at 1uM [%]"
1,COC(=O)[C@@]1(Cc2ccc(F)cc2)[C@H]2c3cc(C(=O)N(C)C)n(CCc4ccccn4)c3C[C@H]2CN1C(=O)c1ccccc1,-35.6
2,CCOc1ccc(C2NC(=O)c3ccccc3O2)cc1OC (centres unmarked),12.3
3,CCN(CC)CCCNC(=O)c1c(O)c2cc(F)cc3c2n(c1=O)C(C)CC3.Cl (centres unmarked),2.41
4,CCCCn1c(N)c(N(CCOC)C(=O)C2CCN(C(=O)c3ccccc3C)CC2)c(=O)[nH]c1=O,-4.48
5,COc1ccc(CN2CCN(Cc3cc4ccccc4o3)CC2CCO)c(F)c1 (centres unmarked),-24.7
6,CCCCCc1c(C)[nH]c2nc3ccccc3n2c1=O,6.36
7,Cc1ccc2occ(C3N[C@H](C(=O)O)CS3)c(=O)c2c1 (some centres unmarked),2.76
8,COc1cc2c(cc1NC(=O)CSc1ccccn1)oc1ccccc12,5.9
9,CCN(C(=O)c1c(-c2ccccc2)noc1C)c1ccccc1,8.88
10,Fc1ccccc1-n1c(-c2ccc3ccccc3n2)n[nH]c1=S,10.6
11,O=S(=O)(Nc1ccc(Cl)cn1)c1cccc(S(=O)(=O)c2ccccc2)c1,3.57
12,COc1ccccc1-n1cccc1C=O,7.24
13,Cc1cc2c(c(/C=C/C(=O)c3ccccc3)c1)OC1(C=C2)Oc2ccccc2C(=O)N1C (centres unmarked),13.3
14,O=C(c1cccc(F)c1)N1CCCC(C(=O)N2CCCCC2)C1 (centres unmarked),13.5
15,CCOC(=O)C1CCN(C(=O)c2cc3c(s2)-c2ccccc2OC3)CC1,-1.08
16,Cc1ccc(NC(=O)CN2C(=O)c3ccccc3S2(=O)=O)cc1C,10.4
17,O=C(Nc1ccc2c(c1)Cc1ccccc1-2)c1cc2ccccc2o1,10.6
18,Cn1c(=S)n(/N=C/c2cccs2)c2ccccc21,6.75
19,Cc1c(C(=O)C(C)C)n(C)c2ccccc12,12.7
20,N#Cc1cnn(Cc2ccc(Cl)cc2)c1N,0.44
21,O=C(O)C(F)(F)F.Oc1cc(-c2cccnc2)cc2cccnc12,8.56
22,COc1ccccc1OCC(=O)NNC(=O)c1ccc2c(=O)n3c(nc2c1)CCC3,5.68
23,CSc1nnc2n(C)c3c(c(=O)n12)C1(CCCC1)Cc1ccccc1-3,5.94

row,Compound,"hERG current change (%, negative = inhibition) at 1uM [%]"
1,Nn1c(SCC(=O)N2CCCc3ccccc32)nnc1-c1ccccc1,7.71
2,COc1cccc(-c2csc(N3CCN(C(=O)NC45CC6CC(CC(C6)C4)C5)CC3)n2)c1,13.8
3,Nc1ncc(Br)cc1S(=O)(=O)NCCC(=O)N1CCN(c2ccccc2)CC1,9.75
4,CCOC(=O)CS(=O)(=O)CC(=O)Nc1ccc([N+](=O)[O-])cc1OC,8.76
5,O=C(CCC(=O)OCC(F)(F)C(F)F)NCc1ccccc1,-2.52
6,CC(Oc1ccc(Cl)cc1Cl)C(=O)NCCCn1ccnc1 (centres unmarked),-15.2
7,Cc1cc(NC(=O)CSc2nc3cc(Cl)ccc3s2)no1,10.9
8,O=C(NCC(c1ccco1)N1CCN(c2ccccc2F)CC1)C(=O)NC1CCCCC1 (centres unmarked),19
9,CCN(CC(=O)Nc1c(F)cccc1F)C(=O)c1ccc(N2CCCC2=O)cc1,14
10,COc1cccc(CNC(=O)c2ccc(CS(=O)(=O)Cc3ccc(C)cc3)o2)c1,2.72
11,CCC(CC)CN1C(Nc2ccccc2)=NC[C@@H]1C,3.45
12,CC1=CC=CN2C1=NC(=O)CC2(C)C(=O)N(CC(=O)NC1CCCC1)Cc1ccccc1 (centres unmarked),14.9
13,CC(=O)C1=C(O)C(=O)N(c2cccc(Br)c2)C1c1ccccc1Cl (centres unmarked),1.31
14,O=C(Nc1ccc(CCC(=O)N2CCCC2)cc1)c1ncn[nH]1,7.02
15,O=C(COc1ccc(Oc2ccccc2)cc1)NCc1cn2ccccc2n1,-6.33
16,COc1ccc(OC)c(-c2csc(NC(=O)Cc3ccc(OC)c(OC)c3)n2)c1,3.16
17,CCc1ccc(Sc2cc(C(=O)NCCN3CCOCC3)c3ccccc3n2)cc1,-6.51
18,N#CCCS(=O)(=O)c1nnnn1-c1ccccc1,-0.802
19,CCN(c1ccccc1)S(=O)(=O)c1cc2c3c(c1)CCN3C(=O)CC2,10.1
20,COc1ccc(OC(C)C(=O)N2CCCc3ccccc32)cc1 (centres unmarked),17.3
21,CC/C(=C1/C(=O)CC(C)(C)C(C(=O)OC)C1=O)N1CCCC1 (centres unmarked),16.5
22,CC1(C)Cc2c(sc3nc4n(-c5ccccc5)cnn4c(=O)c23)CO1,9.36
23,CCc1ccc2c(c1)/C(=N/OC)C(=O)N2,9.76

row,Compound,"hERG current change (%, negative = inhibition) at 1uM [%]"
1,COc1ccc(CNc2cc(C)cc(C)c2)cc1OC,10.1
2,CC(C)(C)c1ccc(C(=O)NCC2CCCN2S(=O)(=O)c2ccccc2)cc1 (centres unmarked),10.6
3,CCOC(=O)c1nn(-c2ccc(C)cc2)c(=O)c2c(N)scc12,1.06
4,COc1cccc(N2CCN(C3CC(=O)N(c4cccc(Cl)c4)C3=O)CC2)c1 (centres unmarked),7.12
5,Cc1cc(C)c(OCC(=O)OCC(=O)N(C)C2CCS(=O)(=O)C2)c(C)c1 (centres unmarked),12.3
6,CCC(C)NC(=O)c1ccc(N2CCC3(CC2)OCCO3)c([N+](=O)[O-])c1 (centres unmarked),16.8
7,CCOC(=O)c1c(CN2CCN(CCO)CC2)n(C)c2cc(Br)c(OC)cc12,9.82
8,C#CCNC(=O)C1=C[C@@H](c2coc3ccccc3c2=O)C[C@@H](OCc2ccc(CO)cc2)O1,-1.27
9,COc1ccccc1CCNC(=O)c1ccoc1C,7.59
10,COc1ccc(Br)cc1C(=O)Nc1cc(C)cc(C)c1,4.56
11,CCn1c2ccccc2c(=O)c2ccccc21,8.54
12,CNC(=S)N/N=C(\C)c1cccc([N+](=O)[O-])c1,-0.488
13,COc1ccc(OC)c(S(=O)(=O)N2CCCCC2C(=O)O)c1 (centres unmarked),0.919
14,CCC(C)c1ccc(NC(=O)CN(C)CC(=O)Nc2cccc(OC)c2)cc1 (centres unmarked),6.64
15,CCN(CC)S(=O)(=O)c1ccc(F)c(C(=O)OC2CC(C)OC2=O)c1 (centres unmarked),7.46
16,Cc1ncc(CCl)c2c1OC(C)(C)OC2.Cl,11.9
17,COc1ccc(CCNC(=O)Cn2c(-c3nonc3N)nc3ccccc32)cc1OC,8.58
18,CCc1nnc(NC(=O)C(C)N2C(=O)C3C4C=CC(C4)C3C2=O)s1 (centres unmarked),3.03
19,COc1cccc(CN(C)c2nc(-c3cccs3)nc3ccccc23)c1,-9.05
20,CCCC(C)C(=O)Nc1ccccc1C(=O)OCC (centres unmarked),7.75
21,COc1cc2oc(-c3ccc(O)cc3)cc(=O)c2c(O)c1OC,-9.67
22,CCOc1ccc(-c2cc(C(=O)Nc3ccc4c(c3)OCCO4)c3ccccc3n2)cc1,13.3
23,COC(=O)c1c(NC(=O)c2ccccc2)sc(C(N)=O)c1C,9.16

row,Compound,"hERG current change (%, negative = inhibition) at 1uM [%]"
1,CSc1ccc(CNCC2CCCO2)cc1.Cl (centres unmarked),16.2
2,O=C(CN1C(=O)c2cccnc2Oc2ccc(Cl)cc21)NC1CCCCC1,5.72
3,Cc1nnc(SCC(=O)n2c3c(c4ccccc42)CCCC3)s1,10.7
4,O=C1CCCc2sccc2N1,-4.07
5,CCOC(=O)C1=C(CSc2nncn2C)NC(=O)NC1c1cc(OCC)ccc1OCC (centres unmarked),5.34
6,COc1ccc(OC)c(C2=C/C(=C/c3ccccn3)C(=O)O2)c1,-0.275
7,Cc1cc(C)c(NC(=O)/C(C#N)=C/c2ccc(OCc3ccc(F)cc3)cc2)c(C)c1,5.26
8,Cc1oc2c(CN3CCCC3)c(O)ccc2c(=O)c1-c1ccc(Br)cc1,6.1
9,CC(C)OC(=O)c1cccnc1SCC(=O)N(C)c1ccccc1,-5.57
10,COc1ccc(-c2cc(C(=O)NCCN3CCOCC3)c3ccccc3n2)cc1OC,12.6
11,CCOC(=O)N1CCN(C(=O)c2cnn(-c3ccccc3)c2NC(=O)c2ccccc2F)CC1,2.98
12,CN(C(=O)CS(=O)(=O)c1cn(CC(=O)N2CCCC2)c2ccccc12)c1ccccc1,4.2
13,Cn1c(N2CCOCC2)c(/C=N/OC(=O)c2ccc(F)cc2)c2ccccc21,15.8
14,CC1=C(C(=O)c2ccccc2)C(c2ccc(O)cc2)NC(=S)N1 (centres unmarked),7.64
15,Cc1cc(OCC(=O)Nc2cccnc2)c2c(C)cc(=O)oc2c1,12.7
16,CC1CCCC(C)N1CCNC(=O)CCn1nc(-c2ccccc2)ccc1=O (centres unmarked),-16
17,Cc1ccccc1NC(=O)CCC(=O)N/N=C/c1c[nH]c2ccccc12,3.45
18,COc1ccc(CCNC(=O)C2(C)CCC(=O)N2Cc2ccc(C)cc2)cc1OC (centres unmarked),16.8
19,CC#CCN(CC#CC)S(=O)(=O)c1ccc(S(=O)(=O)N2CCOCC2)cc1,-4.32
20,Cc1ccc(C(=O)c2cc(Br)ccc2N)cc1,12.5
